In the supplement of paper PMC8047034:
Counter-ions that a name gives are not always drawn. The list shows a part of the results. Many values rest on one well or one pass, so single values are uncertain.

system: OVCAR4; assay: log2 surviving fraction (library drug vs vehicle, or drug + carboplatin vs carboplatin alone; relative to plate median); ovarian cancer lines: OVCAR4 is platinum-sensitive and Ov4Carbo platinum-resistant; higher = more cell survival; conditions: library drug concentration 10 µM; 7 days; carboplatin co-treatment 0 µM

Compound | log2 surviving fraction
C[C@]12CC[C@H]3[C@@H](CC[C@@]45O[C@@H]4C(O)=C(C#N)C[C@]35C)[C@@H]1CC[C@@H]2O [Trilostane] | -0.238
CCOc1nc2cccc(C(=O)O)c2n1Cc1ccc(-c2ccccc2-c2noc(=O)[nH]2)cc1 [Azilsartan (TAK-536)] | 0.779
CC(=O)OC1CN2CCC1CC2 (stereo unspecified) [Aceclidine HCl] | 1.19
CC1(C)[C@@H](OC(=O)CCC(=O)O)CC[C@]2(C)[C@H]3C(=O)C=C4[C@@H]5C[C@@](C)(C(=O)O)CC[C@]5(C)CC[C@@]4(C)[C@]3(C)CC[C@@H]12 [Carbenoxolone Sodium] | 0.0117
C=CC[N+]1([C@H]2C[C@H]3[C@@H]4CC[C@H]5C[C@H](O)[C@@H](N6CCOCC6)C[C@]5(C)[C@H]4CC[C@]3(C)[C@H]2OC(C)=O)CCCC1 [Rocuronium bromide] | 1.23
Cc1cc(C(C#N)c2ccc(Cl)cc2)c(Cl)cc1NC(=O)c1cc(I)cc(I)c1O (stereo unspecified) [Closantel] | 0.11
